Test results from US9029413B2, “Treatment of viral infections by modulation of host cell metabolic pathways” (The Trustees of Princeton University, priority 2007, dated 2015).

Key:
[1] = system: hepatitis B virus (HBV) ayw strain; assay: Extracellular HBV DNA from HepG2-2.2.15 cells, real-time quantitative PCR; conditions: TOFA 90 μg/mL
From the text: HepG2-2.2.15 is a stable cell line containing the hepatitis B virus (HBV) ayw strain genome that is useful in identifying and characterizing Compounds blocking any step of viral replication, such as, transcription, translation, pregenome encapsidation, reverse transcription, particle assembly and release. In one aspect, Compounds can be added to HepG2-2.2.15 culture to test whether Compound will reduce the production of secreted HBV from cells utilizing real time quantitative PCR (TaqMan) assay to measure HBV DNA copies. […] HBV virion DNA in the culture medium can be assessed 24 hours after the last treatment by quantitative blot hybridization or real time quantitative PCR (TaqMan) assay. […] Intracellular HBV DNA replication intermediates can be assessed by quantitative Southern blot hybridization. […] ELISAs can be used to quantify the amounts of the HBV envelope protein, surface antigen (HBsAg), and secreted e-antigen (HBeAg) released from cultures. […]
HBV causes serious, life-threatening, chronic disease in humans. […] The medium with the ACC inhibitor is replaced every 24 hours, and media samples are removed after drug treatment for 24, 48, 72 or 96 hours and assayed for the presence of extracellular viral DNA by real-time quantitative PCR. […]

HCMV = HCMV replication in human fibroblasts with a combination of ACC inhibitor and Cox inhibitor
From the text: Cox inhibitors block the production of prostaglandins, lipid compounds that serve as second messages and elicit a wide range of physiological responses in cells and tissues. A non-limiting example of a rationale for a beneficial antiviral effect of a combination of ACC inhibitor and Cox inhibitor follows from the fact that eicosinoids are synthesized by COX action on arachidonic acid. Arachidonic acid is derived from diet and fatty acid synthesis, and, consequently, its availability is influenced by ACC activity. A non-limiting example of an assay that can be performed to assess the effect of a combination of an ACC inhibitor plus Cox inhibitor on HCMV replication follows. Assays for TOFA-mediated antiviral activity using HCMV-infected human fibroblasts have been described in this document. In each assay, various concentrations of TOFA can be combined with various concentrations of indomethacin and assayed for their effect on virus replication. In one preferred embodiment, a physiological concentration of indomethacin is held constant as the dose of TOFA is increased. Control cultures are treated with no drug, indomethacin alone or the various concentrations of TOFA alone. […] The antiviral effect of indomethacin plus each concentration of TOFA is then compared to the activity of indomethacin alone or the various concentrations of TOFA alone. […]

CCCCCCCCCCCCCCOc1ccc(C(=O)O)o1 [TOFA, 5-(tetradecyloxy)-2-furoic acid]
production of extracellular HBV DNA [1]: almost completely blocks production of extracellular HBV DNA
concentration of TOFA required to produce a 10-fold reduction in HCMV replication (HCMV; in the presence of a pharmacologically acceptable concentration of indomethacin): ≤ 5 μg/mL
concentration of TOFA required to produce a 10-fold reduction in HCMV replication (HCMV; without indomethacin): ~10 μg/mL
